Source: US11034672B1, “Tyrosine kinase inhibitor compositions, methods of making and methods of use” (Black Diamond Therapeutics, Inc., priority 2018, dated 2021)

What follows are molecules tested on covalently-activated EGFR variants (assay: Covalent dimer formation, Western blot under non-reducing conditions). Settings: covalent dimers of covalently-activated EGFR variants (EGFR-Vii, EGFR-A289V), Table 6.
Format: cell-based

SMILES	Induced dimers
C=CC(=O)Nc1ccc2ncnc(Nc3ccc(OCc4cccc(F)c4)c(Cl)c3)c2c1 [AST-1306]	No
COc1cc2ncnc(Nc3ccc(F)c(Cl)c3)c2cc1NC(=O)/C=C/CN1CCCCC1 [Dacomitinib, dacomitinib]	Yes
CCOc1cc2ncc(C#N)c(Nc3ccc(OCc4cccc(F)c4)c(Cl)c3)c2cc1NC(=O)/C=C/CN(C)C [HKI-357]	No
